For 7 molecules, binding results are on record in publication PMC11328492.

Chains of the proteins cited; added tags and fusions are not shown. Lines headed by an entry give the natural chain unless they say otherwise; changes in a name come on top.
UniProt Q03181: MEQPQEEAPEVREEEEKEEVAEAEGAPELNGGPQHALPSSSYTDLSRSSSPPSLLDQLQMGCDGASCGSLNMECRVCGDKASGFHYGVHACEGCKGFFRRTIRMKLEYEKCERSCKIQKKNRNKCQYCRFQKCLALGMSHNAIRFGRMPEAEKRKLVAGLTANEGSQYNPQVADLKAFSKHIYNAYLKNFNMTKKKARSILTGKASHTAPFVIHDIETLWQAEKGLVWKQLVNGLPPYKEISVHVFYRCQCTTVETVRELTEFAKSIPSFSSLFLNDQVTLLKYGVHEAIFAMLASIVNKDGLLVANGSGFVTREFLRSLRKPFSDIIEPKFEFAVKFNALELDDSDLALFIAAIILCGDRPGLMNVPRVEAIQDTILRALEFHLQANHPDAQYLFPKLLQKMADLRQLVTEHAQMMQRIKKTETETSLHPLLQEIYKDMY

Like-named read-outs stand apart in the source and are kept apart here. No constants are given. Whether binding was seen depends on the method and setting. In cells and extracts the contact can be indirect. Some results given as binding are weak or reduced against the parent protein; the word gives no strength. For some of these results: Where a sequence is shown, tags or fusion partners need not be part of it.

In test [1] the target is T1, Flag-ZDHHC6 (3×Flag, pcDNA3.4), expressed in CRC cells (human) (UniProt Q9H6R6).
T1 sequence: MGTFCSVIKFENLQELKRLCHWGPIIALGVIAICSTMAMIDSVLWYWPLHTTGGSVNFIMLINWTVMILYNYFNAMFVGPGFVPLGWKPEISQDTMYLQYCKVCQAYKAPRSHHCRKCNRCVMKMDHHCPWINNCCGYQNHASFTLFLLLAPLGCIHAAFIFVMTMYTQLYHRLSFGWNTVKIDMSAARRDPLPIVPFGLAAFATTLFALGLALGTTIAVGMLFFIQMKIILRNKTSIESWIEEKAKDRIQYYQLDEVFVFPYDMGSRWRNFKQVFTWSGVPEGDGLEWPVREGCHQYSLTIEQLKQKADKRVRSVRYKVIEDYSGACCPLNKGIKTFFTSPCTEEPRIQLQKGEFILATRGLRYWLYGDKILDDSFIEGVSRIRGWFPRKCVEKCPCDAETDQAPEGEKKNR
As to the kind of experiment: co-IP; Flag-ZDHHC6 and His-PPARγ overexpressed in HCT116, Caco-2, SNU-C2A and HT-29 for 24 h; lysates immunoprecipitated with Flag and/or His antibodies, blotted with His or Flag antibodies.

The target of test [2] is T2, HA-ZDHHC6 (3×HA, pcDNA3.4) (human) (UniProt Q9H6R6).
T2 sequence: T1 sequence
As to the kind of experiment: co-IP; PPARγ and HA-ZDHHC6 co-transfected; IP of HA; Caco-2 by the text, HCT116 by the legend.

The target of test [3] is T3, Zinc finger DHHC-type palmitoyltransferase 6 (ZDHHC6), endogenous (human (endogenous in HCT116, SNU-C2A, SW48, HT-29, LS1034, Caco-2)) (UniProt Q9H6R6).
T3 sequence: T1 sequence
Put plainly: co-IP; endogenous proteins; lysates (E1A lysis buffer) of HCT116 (Fig. 5B), SNU-C2A, SW48, HT-29, LS1034 and Caco-2 (Fig. 5C) immunoprecipitated with ZDHHC6 or IgG antibodies, western blot; mutual co-IP in HCT116 (Fig. 7F).

In test [4] the target is T3, Zinc finger DHHC-type palmitoyltransferase 6 (ZDHHC6), endogenous (human (endogenous in HCT116, SNU-C2A, SW48, HT-29, LS1034, Caco-2)). The test is described as above. This is another data set of the same source.
For test [5], the target named is Peroxisome proliferator-activated receptor gamma (PPARγ), endogenous (human (endogenous in HCT116, SNU-C2A, SW48, HT-29, LS1034, Caco-2)) (UniProt P37231). Described as above.
Test [6] addresses His-PPARγ, expressed in CRC cells (human) (UniProt P37231). Put plainly: co-IP; Flag-ZDHHC6 and His-PPARγ overexpressed in HCT116, Caco-2, SNU-C2A and HT-29 for 24 h; lysates immunoprecipitated with Flag and/or His antibodies, blotted with His or Flag antibodies.

As to “His-PPARγ, expressed in CRC cells (from UniProt P37231 1-505)”, in test [1], the binding entry was “binds”. Take “PPARγ co-transfected with HA-ZDHHC6 (from UniProt P37231 1-505)”: in test [2], the binding result is reported as “binds”. In the case of “PPARδ, endogenous (from UniProt Q03181 1-441)”, in test [3], the binding entry is “no binding”. Still for that read-out and setting: under “Peroxisome proliferator-activated receptor gamma (PPARγ), endogenous (from UniProt P37231 1-505)” stands “binds”.

B1: PPARα, endogenous (protein, UniProt Q07869 1-468)
chain: MVDTESPLCPLSPLEAGDLESPLSEEFLQEMGNIQEISQSIGEDSSGSFGFTEYQYLGSCPGSDGSVITDTLSPASSPSSVTYPVVPGSVDESPSGALNIECRICGDKASGYHYGVHACEGCKGFFRRTIRLKLVYDKCDRSCKIQKKNRNKCQYCRFHKCLSVGMSHNAIRFGRMPRSEKAKLKAEILTCEHDIEDSETADLKSLAKRIYEAYLKNFNMNKVKARVILSGKASNNPPFVIHDMETLCMAEKTLVAKLVANGIQNKEAEVRIFHCCQCTSVETVTELTEFAKAIPGFANLDLNDQVTLLKYGVYEAIFAMLSSVMNKDGMLVAYGNGFITREFLKSLRKPFCDIMEPKFDFAMKFNALELDDSDISLFVAAIICCGDRPGLLNVGHIEKMQEGIVHVLRLHLQSNHPDDIFLFPKLLQKMADLRQLVTEHAQLVQIIKKTESDAALHPLLQEIYRDMY
In the case of B1, the binding entry in test [4] is given as “no binding”.

B2: Zinc finger DHHC-type palmitoyltransferase 6 (ZDHHC6), endogenous (enzyme, UniProt Q9H6R6 1-413)
chain: T1 sequence
Turning to B2, the binding entry in test [5] is given as “binds”.

B3: Flag-ZDHHC6 (3×Flag, pcDNA3.4), expressed in CRC cells (enzyme, UniProt Q9H6R6 1-413)
chain: T1 sequence
Regarding B3, the binding result in test [6] is on record as “binds”.
